Experimental data from PubChem BioAssay AID1476 (National Center for Advancing Translational Sciences (NCATS), 2009).
Screen size: about 200,000 compounds; about 4,500 (2.2%) were called active. Inconclusive results, whose numbers are uncertain, are shown with a selection of clear calls. The call rests on the fitted dose curve; in most records, active means well fitted inhibition curve with a large enough effect; inconclusive means small, poorly fitted or top-dose-only effect, or effect the other way; inactive means flat fitted curve, though single readings scatter. Potencies of inconclusive entries are doubtful fits and often do not repeat.

The compounds below were run against Cruzipain (Trypanosoma cruzi) (UniProt P25779) (assay: qHTS Assay for Promiscuous and Specific Inhibitors of Cruzain (without detergent)). Details: purified cruzain, Z-FR-AMC fluorescence, no detergent.
Sequence of UniProt P25779 (P25779 whole entry, looked up): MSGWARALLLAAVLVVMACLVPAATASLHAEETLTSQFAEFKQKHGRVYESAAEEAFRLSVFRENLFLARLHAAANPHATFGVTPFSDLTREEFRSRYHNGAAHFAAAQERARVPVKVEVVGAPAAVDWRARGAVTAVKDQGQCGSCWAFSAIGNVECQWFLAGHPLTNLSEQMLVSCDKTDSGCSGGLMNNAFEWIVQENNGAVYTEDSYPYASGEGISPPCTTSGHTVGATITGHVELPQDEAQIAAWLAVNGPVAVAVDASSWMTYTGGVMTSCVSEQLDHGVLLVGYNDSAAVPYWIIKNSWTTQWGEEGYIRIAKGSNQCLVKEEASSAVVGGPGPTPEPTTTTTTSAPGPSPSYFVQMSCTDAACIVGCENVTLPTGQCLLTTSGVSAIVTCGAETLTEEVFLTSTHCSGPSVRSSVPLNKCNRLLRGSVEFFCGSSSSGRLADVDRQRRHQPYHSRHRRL
Procedure, shortened: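 Purified cruzain at 1.5 nM, pre-incubated 15 min with compound at room temperature in 100 mM sodium acetate pH 5.5, 5 mM DTT, 0.00005% Triton X-100. Reaction started with 2 uM Z-FR-AMC; AMC fluorescence increase over 60 s gives rate.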
Further: nearly all actives have a fitted effect of over 40% in size.
Potency means the concentration at half of the fitted maximal effect; tags describe the fitted curve by direction and shape.
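Wherever max response, negative = inhibition is given: plate controls were enzyme without inhibitor for no effect and buffer without enzyme for full effect.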

Compound | max response, negative = inhibition | Potency
Cc1cccc(-c2nc(SCc3ccc(Br)cc3)n3[nH]c(=O)cc3n2)c1 | inactive: -2.63% | 
CCOC(=O)c1cnn(-c2ccc(OC)cc2)c1C1CCN(C(=O)OC(C)(C)C)CC1 |  | inconclusive: 25.1 µM [activator, partial curve]
CCCOc1ccccc1N/C(=N/c1nc(C)cc(C)n1)NC(=O)Nc1ccc(Cl)cc1 |  | active: 7.94 µM
COc1ccc(C2c3c(ccc4ccccc34)Oc3ncn4nc(-c5ccco5)nc4c32)cc1 (centres undefined) |  | inconclusive: 10 µM [inhibitor, partial curve, poor fit]
O=C(CSc1ccc(-c2nc3ccccc3[nH]2)cn1)Nc1ccc(S(=O)(=O)NC2CC2)cc1 |  | inconclusive: 31.6 µM [inhibitor, single point]
COc1ccccc1-c1cc(C(F)(F)F)nc(S(=O)(=O)CCCC(=O)N2CCOCC2)n1 |  | inconclusive: 39.8 µM [activator, single point]
CCOc1ccc(CCNC(=O)CCc2cn(Cc3ccccc3F)c3ccccc23)cc1OCC |  | inconclusive: 25.1 µM [activator, single point]
COc1ccc(N2C(=O)CC(N3CCN(c4nc5ccccc5s4)CC3)C2=O)cc1 (centres undefined) |  | inconclusive: 31.6 µM [activator, partial curve]
COc1ccc(-c2coc3cc4oc(=O)cc(-c5ccccc5)c4cc23)cc1F |  | active: 10 µM
CCOc1ccc(NC(=O)c2c(Nc3ccc(OC)cc3OC)sc(C(=O)c3ccc(Cl)cc3)c2N)cc1 |  | inconclusive: 15.8 µM [inhibitor, partial curve, poor fit]
O=C(CNc1n[nH]c(=O)[nH]c1=O)N/N=C/c1cccnc1 | inactive: -6.5% | 
CCOC(=O)N1CCC(NC(=O)CS(=O)(=O)Cc2nc(-c3ccc(C)cc3)oc2C)CC1 |  | inconclusive: 31.6 µM [activator, single point]
Cc1csc(NC(=O)c2cc3c(s2)CCCC3)n1 |  | inconclusive: 31.6 µM [inhibitor, single point]
CC1Oc2ccccc2N(CC(=O)NCCc2ccccc2)C1=O (centres undefined) | inactive: -1.23% | 
CCC(C)(C)C1CCc2c(sc(NC(=O)c3ccoc3C)c2C(N)=O)C1 (centres undefined) |  | inconclusive: 39.8 µM [inhibitor, single point]
COc1ccc(N2CCN(c3oc(-c4ccc(OC)c(OC)c4)nc3C#N)CC2)cc1 |  | inconclusive: 31.6 µM [activator, single point]
CCC(CO)NC(=O)C(=O)Nc1c2c(nn1-c1ccc(F)cc1)CSC2 (centres undefined) |  | inconclusive: 31.6 µM [activator, single point]
O=C(Nc1ccccc1)O/N=C/c1ccccc1Cl | inactive: 8.07% | 
CC(C)(C)c1ccc(S(=O)(=O)NCc2ccc3c(c2)CCN3C(=O)c2ccccc2)cc1 |  | inconclusive: 39.8 µM [inhibitor, single point]
O=C(CNc1cccc2ccccc12)N/N=C/c1cccc(Oc2ccccc2)c1 |  | active: 20 µM
COc1ccc(OC)c(S(=O)(=O)N(C)CC(=O)N2CCN(c3ccc(F)cc3)CC2)c1 |  | inconclusive: 31.6 µM [activator, single point]
COc1ccc(OC)c(-n2cnnn2)c1 | inactive: 2.16% | 

Compound | max response, negative = inhibition | Potency
CCOC(=O)c1[nH]c2ccccc2c1NC(=O)c1ccc2c(c1)OCO2 |  | inconclusive: 31.6 µM [inhibitor, single point]
CCOC(=O)c1c(NC(=O)CSc2c[nH]c3ccccc23)sc2c1CCC2 |  | active: 31.6 µM
COc1ccc(NC(=O)c2cc3c(-c4ccc(OC)c(OC)c4)nn(C)c3s2)cc1OC |  | inconclusive: 25.1 µM [activator, partial curve]
COc1nc(N)nc2c1ncn2[C@@H]1C[C@H](O)[C@@H](CO)O1 | inactive: -4.01% | 
C=CCn1c(CCNC(=O)c2ccc(Cl)c(Cl)c2)nnc1SCCOc1ccc(OC)cc1 |  | inconclusive: 39.8 µM [activator, single point]
C/C(=N\N=C1/NC(=O)C(C)S1)c1ccc([N+](=O)[O-])cc1 (centres undefined) |  | active: 15.8 µM
CC(=O)c1ccc(N2CCN(C(=O)CCCn3c(=S)[nH]c4cc5c(cc4c3=O)OCO5)CC2)cc1 |  | inconclusive: 39.8 µM [inhibitor, single point]
CCn1c(SCC(=O)Nc2ccc(OCc3ccccc3)cc2)nnc1-c1ccco1 |  | inconclusive: 31.6 µM [activator, single point]
Cc1ccccc1NC(=O)Cn1c(SCC(=O)Nc2ccc(F)cc2)nc2ccccc21 | inactive: 2.29% | 
COc1ccc(/C=N/NC(N)=S)cc1OC(=O)c1ccccc1 |  | inconclusive: 25.1 µM [inhibitor, single point]
COc1ccc2c(c1)N(C)/C(=C1/SC(=NCc3ccccc3)N(c3ccccc3)C1=O)S2 |  | inconclusive: 31.6 µM [inhibitor, single point]
Cc1cc(C(=O)NCc2cc(C)n(C)n2)sc1-c1ccccc1 |  | inconclusive: 39.8 µM [activator, single point]
COc1ccc(C(=O)N2N=C(c3cccc(OC)c3)CC2(O)C(F)(F)F)cc1 (centres undefined) | inactive: 8.62% | 
Cc1cc(C(C)(C)C)cc(C)c1COC(=O)C1CCC(=O)N1 (centres undefined) |  | inconclusive: 39.8 µM [activator, single point]
O=C(Nc1ccc2ccccc2c1)[C@@H]1C[C@H]1[C@@H](NP(=O)(c1ccccc1)c1ccccc1)c1ccccc1 |  | inconclusive: 39.8 µM [inhibitor, single point]
COc1cc(CNC(=O)c2ccc3c(c2)N(C)C(=O)C2CCCCN32)cc(OC)c1OC (centres undefined) | inactive: 5.55% | 
COc1ccccc1C(=O)Nc1ccc(Oc2nnc(-c3ccc(C)cc3)c3ccccc23)cc1 |  | inconclusive: 31.6 µM [inhibitor, single point]
COc1ccc(N2CCN(c3c(S(=O)(=O)c4ccccc4)cnc4ccc(OC)cc34)CC2)cc1 |  | inconclusive: 39.8 µM [inhibitor, single point]
COC(=O)c1ccccc1OCCCOc1ccc(C)cc1OC |  | inconclusive: 31.6 µM [inhibitor, single point]
Cc1ccc(S(=O)(=O)N2CCC(=O)N(CCOC(=O)Nc3ccc(C)c(C)c3)CC2)cc1 |  | inconclusive: 39.8 µM [activator, single point]
COc1ccc(NC(=O)c2ccc(OC)cc2)cc1 | inactive: -1.58% | 
CCCCCC(=O)N1CC2(CC(c3cccc(NC(=O)c4ccccc4)c3)=NO2)C[C@@H]1C(N)=O (some centres undefined) |  | inconclusive: 39.8 µM [activator, single point]

Compound | max response, negative = inhibition | Potency
CN(Cc1ccco1)C(=O)c1ccc2c(c1)N(Cc1ccccc1F)C(=O)c1ccccc1S2 | inactive: -14.2% | 
COCCn1c(SCc2nc3sc(C(=O)OC)c(C)c3c(=O)[nH]2)nc2ccccc21 |  | inconclusive: 20 µM [activator, partial curve]
CCCc1nc2ccccc2c(C(=O)OCC(=O)Nc2c(C)n(C)n(-c3ccccc3)c2=O)c1CC |  | inconclusive: 39.8 µM [activator, single point]
CCCCn1c(SCC(=O)NCc2ccco2)nnc1-c1ccoc1C |  | inconclusive: 31.6 µM [activator, single point]
CC(=O)N1c2ccc(S(=O)(=O)NCC3CCC(C(=O)Nc4ccc(C)cc4)CC3)cc2CC1C (centres undefined) |  | inconclusive: 3.98 µM [activator, full curve, poor fit]
COc1ccc(-c2nnn(CC(=O)N(C3CCCCC3)C(C)C(=O)NC3CCCC3)n2)cc1OC (centres undefined) |  | inconclusive: 39.8 µM [activator, single point]
Nc1c(C(=O)Nc2nc3ccccc3s2)sc2nc(-c3cccs3)ccc12 |  | active: 7.94 µM
Cc1nc(SCC(=O)N2CCN(C(=O)c3ccco3)CC2)c2c(C)c(C)sc2n1 |  | inconclusive: 39.8 µM [activator, single point]
O=C(Cn1c(=O)oc2cc(S(=O)(=O)N3CCCCC3)ccc21)N1CCc2ccccc21 |  | inconclusive: 39.8 µM [inhibitor, single point]
Cc1nc2sc(C(c3ccco3)N3CCC(Cc4ccccc4)CC3)c(O)n2n1 (centres undefined) |  | inconclusive: 39.8 µM [activator, single point]
CCCCC[C@H](O)/C=C/[C@H]1C=CC(=O)[C@@H]1C/C=C\CCCC(=O)O |  | inconclusive: 10 µM [activator, partial curve]
N[C@H](C(=O)O)[C@H](N)C(=O)O | inactive: -6.03% | 
COc1ccc(C2C=C(c3cccc(OC)c3)Nc3c(C(=O)Nc4ccccc4)cnn32)cc1 (centres undefined) |  | inconclusive: 31.6 µM [inhibitor, single point]
CC(=O)c1cccc(NC(=O)C(OC(=O)c2cccs2)c2ccccc2)c1 (centres undefined) |  | active: 31.6 µM
Cc1ccc(S(=O)(=O)NCCN(CCNS(=O)(=O)c2ccc(C)cc2)S(C)(=O)=O)cc1 |  | inconclusive: 39.8 µM [activator, single point]
CCOC(=O)c1c(NC(=O)c2cc(-c3cccc(O)c3)on2)sc(C(C)=O)c1C |  | inconclusive: 5.01 µM [activator, single point]
O=C(NCC1CCCO1)c1ccc2c(=O)n(CCc3ccccc3)c(=O)[nH]c2c1 (centres undefined) |  | inconclusive: 25.1 µM [inhibitor, single point]
CC(=O)Nc1cccc(NC(=O)CN2C(=O)CCSc3ccccc32)c1 | inactive: -2.47% | 
Cc1nc2ccc(NC(=O)Cc3cccs3)cc2s1 | inactive: -4.76% | 
CC(C)COc1ccc(C(=O)Nc2scc(-c3ccc(Cl)cc3Cl)c2C(N)=O)cc1 |  | active: 10 µM
